The other results are listed elsewhere or left out. At the low end of the ranking the order means little.

The experiment concerns the target T1, ELK1 (UniProt P19419).
T1 sequence: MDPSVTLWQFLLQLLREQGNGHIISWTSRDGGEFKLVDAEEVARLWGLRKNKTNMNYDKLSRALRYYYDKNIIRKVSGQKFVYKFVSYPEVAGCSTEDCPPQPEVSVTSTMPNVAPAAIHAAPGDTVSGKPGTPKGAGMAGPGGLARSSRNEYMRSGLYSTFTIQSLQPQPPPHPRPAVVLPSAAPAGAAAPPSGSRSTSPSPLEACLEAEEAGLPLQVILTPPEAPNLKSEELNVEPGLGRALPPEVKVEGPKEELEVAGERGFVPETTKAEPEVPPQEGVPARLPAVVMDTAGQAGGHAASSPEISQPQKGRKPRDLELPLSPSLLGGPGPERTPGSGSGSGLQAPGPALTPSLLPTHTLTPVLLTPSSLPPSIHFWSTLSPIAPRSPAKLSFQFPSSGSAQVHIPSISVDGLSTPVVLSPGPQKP
Put plainly: custom PBM. The settings on record: custom protein-binding microarray; buffer, salt, pH and temperature not stated; high values mean tight binding; double strand, one strand shown.
As to “GATTAATTTCTGCCCTTATTCGCACGTGCCCTAACAGTCTTGATTCGCTTGACGCTGCTG”, the binding signal (log fluorescence intensity) worked out at 8.97.

Regarding “GCTGCTGCGGTGCATACCCCACGGGATGTGACCCCGGTCTTGATTCGCTTGACGCTGCTG”, the binding signal (log fluorescence intensity) was 8.82.

On to “TAAAGGGAAGACGGTTGTGGTAGTTCCGTGTATTAAGTCTTGATTCGCTTGACGCTGCTG”, for which the binding signal (log fluorescence intensity) turned out to be 9.6.

“GCTACTGCGGTGCATACCCCACCGGATGTGACCCCGGTCTTGATTCGCTTGACGCTGCTG”: the binding signal (log fluorescence intensity) was determined as 10.2.

For the sequence “GCTGATGCGGTGCATACCCCACCGGATGTGACCCCGGTCTTGATTCGCTTGACGCTGCTG”, the binding signal (log fluorescence intensity) is 10.2.

Regarding “CGGAATTGTCGTAAACGTCGGATATCCGGTTCTTCTGTCTTGATTCGCTTGACGCTGCTG”, the binding signal (log fluorescence intensity) worked out at 12.8.

For the sequence “TGTCGGGTAAGGGAAAGTAGATCACGTGAATGAAAAGTCTTGATTCGCTTGACGCTGCTG”, the binding signal (log fluorescence intensity) came out at 9.03.

Turning to “CGGAAGTGTCGTAAACGTCGTATATCCGGTTCTTCTGTCTTGATTCGCTTGACGCTGCTG”, the binding signal (log fluorescence intensity) came out at 11.3.

For “GATTAATTTCTGGCCTTATTCGCACGTGCCATAACAGTCTTGATTCGCTTGACGCTGCTG”, the binding signal (log fluorescence intensity) was 8.88.

“GCTGCTGCGGTGCATACCCCACCGGATGTGACCCAGGTCTTGATTCGCTTGACGCTGCTG”: the binding signal (log fluorescence intensity) was found to be 10.2.

Regarding “GACTGACTTATATATGCGAATGCACATGAATAGACCGTCTTGATTCGCTTGACGCTGCTG”, the binding signal (log fluorescence intensity) was determined as 8.81.

Take “TACTGACTTATATATGCGAATGCACATTAATAGACCGTCTTGATTCGCTTGACGCTGCTG”: the binding signal (log fluorescence intensity) is 8.91.

In the case of “GTGTATAGGATCCCATCCAACACATGTGTTAAAATGGTCTTGATTCGCTTGACGCTGCTG”, the binding signal (log fluorescence intensity) worked out at 8.79.

As for “GTGTATAGGATCCCATCCAACACACGTGTTCAAATGGTCTTGATTCGCTTGACGCTGCTG”, the binding signal (log fluorescence intensity) came to 8.97.

As for “TACTGACTTATATATGCGAATGCACATGAATAGACAGTCTTGATTCGCTTGACGCTGCTG”, the binding signal (log fluorescence intensity) was found to be 8.79.

For the sequence “TACTGACTTATATATGCGAATGCACATGAATAGAACGTCTTGATTCGCTTGACGCTGCTG”, the binding signal (log fluorescence intensity) was 8.92.

In the case of “CATTAATTTCTGCCCTTATTCGCACGTGCCATAACAGTCTTGATTCGCTTGACGCTGCTG”, the binding signal (log fluorescence intensity) stood at 8.95.

Regarding “TACTGACTTATATATGCGAATGCACATGCATAGACCGTCTTGATTCGCTTGACGCTGCTG”, the binding signal (log fluorescence intensity) worked out at 8.85.

Regarding “TGTCGGGTAAGGGAATGTAGATCAAGTGAATGAAAAGTCTTGATTCGCTTGACGCTGCTG”, the binding signal (log fluorescence intensity) was 8.63.

For the sequence “TACTGACTTATATAAGCGAATGCACATGAATAGACCGTCTTGATTCGCTTGACGCTGCTG”, the binding signal (log fluorescence intensity) stood at 8.83.

On to “GTGTATAGGATCCCATCCAACATACGTGTTAAAATGGTCTTGATTCGCTTGACGCTGCTG”, for which the binding signal (log fluorescence intensity) came out at 8.92.

In the case of “GGAAAAAGGCCCAGGGTAACACCGGAAGTGGGCCTAGTCTTGATTCGCTTGACGCTGCTG”, the binding signal (log fluorescence intensity) was determined as 10.9.

Regarding “CGGAAGTGTCGTAAACGTCGGATATCAGGTTCTTCTGTCTTGATTCGCTTGACGCTGCTG”, the binding signal (log fluorescence intensity) turned out to be 9.1.

For the sequence “TACAGACTTATATATGCGAATGCACATGAATAGACCGTCTTGATTCGCTTGACGCTGCTG”, the binding signal (log fluorescence intensity) stood at 9.04.

On to “TACTGACTTATATATGCGAATGCACATGTATAGACCGTCTTGATTCGCTTGACGCTGCTG”, for which the binding signal (log fluorescence intensity) is 8.72.

On to “GATTAATTTCTGCCGTTATTCGCACGTGCCATAACAGTCTTGATTCGCTTGACGCTGCTG”, for which the binding signal (log fluorescence intensity) turned out to be 8.89.

With “GCTGCTGCTGTGCATACCCCACCGGATGTGACCCCGGTCTTGATTCGCTTGACGCTGCTG”, the binding signal (log fluorescence intensity) was found to be 10.2.

“TCCGGGTACCAGCTCCACCCACTTCAGGCCTTGTAGGTCTTGATTCGCTTGACGCTGCTG”: the binding signal (log fluorescence intensity) amounted to 8.92.

As for “TAAAGGGAAGACGGTTGTGGTAGTTGCGGGTATTAAGTCTTGATTCGCTTGACGCTGCTG”, the binding signal (log fluorescence intensity) was found to be 8.81.

In the case of “TTCTGACTTATATATGCGAATGCACATGAATAGACCGTCTTGATTCGCTTGACGCTGCTG”, the binding signal (log fluorescence intensity) worked out at 8.82.

For the sequence “TAAAGGGAAGACGGTTGTGGTAGTTCCAGGTATTAAGTCTTGATTCGCTTGACGCTGCTG”, the binding signal (log fluorescence intensity) came out at 9.02.

On to “GCTGCTGCGGTGCATACCCCACCGGATATGACCCCGGTCTTGATTCGCTTGACGCTGCTG”, for which the binding signal (log fluorescence intensity) stood at 9.88.

As to “TGTCGGGTAGGGGAATGTAGATCACGTGAATGAAAAGTCTTGATTCGCTTGACGCTGCTG”, the binding signal (log fluorescence intensity) came out at 8.76.

On to “TAAAGGGAAGACGGTTGTGGAAGTTCCGGGTATTAAGTCTTGATTCGCTTGACGCTGCTG”, for which the binding signal (log fluorescence intensity) came out at 11.4.

Turning to “GCTGCTGGGGTGCATACCCCACCGGATGTGACCCCGGTCTTGATTCGCTTGACGCTGCTG”, the binding signal (log fluorescence intensity) was found to be 9.94.

“TACTCACTTATATATGCGAATGCACATGAATAGACCGTCTTGATTCGCTTGACGCTGCTG”: the binding signal (log fluorescence intensity) amounted to 8.9.

As for “GATTAATTTCTGCCCTTATTCGAACGTGCCATAACAGTCTTGATTCGCTTGACGCTGCTG”, the binding signal (log fluorescence intensity) stood at 8.94.

For the sequence “GTGTATAGTATCCCATCCAACACACGTGTTAAAATGGTCTTGATTCGCTTGACGCTGCTG”, the binding signal (log fluorescence intensity) was determined as 8.93.

As for “CAGCATAGGACTTCGTCCCTGAAGCAATTGATAACCGTCTTGATTCGCTTGACGCTGCTG”, the binding signal (log fluorescence intensity) came out at 8.96.

With “TCCGGCTACCAGCTCCACCCACTTCAGGCATTGTAGGTCTTGATTCGCTTGACGCTGCTG”, the binding signal (log fluorescence intensity) stood at 8.89.

As to “CAGCATAGGACTTCTTCCCTGAGGCAATTGATAACCGTCTTGATTCGCTTGACGCTGCTG”, the binding signal (log fluorescence intensity) was 8.96.
